Six molecules from article PMC4764940 can be followed below.

Amino acid sequences for entries named in this document (tags omitted).
UniProt Q7Z434: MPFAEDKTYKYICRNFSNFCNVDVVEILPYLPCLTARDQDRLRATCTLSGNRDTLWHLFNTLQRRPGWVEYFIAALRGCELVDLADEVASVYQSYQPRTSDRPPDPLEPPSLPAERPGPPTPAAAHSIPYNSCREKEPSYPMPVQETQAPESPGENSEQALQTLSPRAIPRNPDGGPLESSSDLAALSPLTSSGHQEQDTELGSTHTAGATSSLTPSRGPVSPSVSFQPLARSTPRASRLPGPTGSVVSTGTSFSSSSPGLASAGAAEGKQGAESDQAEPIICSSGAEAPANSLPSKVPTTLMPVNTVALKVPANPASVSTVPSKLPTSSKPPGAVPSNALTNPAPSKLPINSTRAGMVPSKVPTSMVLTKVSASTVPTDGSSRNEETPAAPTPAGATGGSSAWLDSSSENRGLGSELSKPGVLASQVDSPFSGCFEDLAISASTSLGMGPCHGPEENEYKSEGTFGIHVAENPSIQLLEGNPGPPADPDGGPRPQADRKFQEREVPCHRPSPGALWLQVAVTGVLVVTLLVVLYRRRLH

These are yes or no findings as the source states them, for the method shown. In cells and extracts the contact can be indirect. Some entries that bind do so weakly or less than the wild type. For some of these results: Sequences can lack the tags named with a protein.

The target in assay [1] is T1, endogenous pyruvate carboxylase (PC) (human (endogenous in 293T and A549)) (UniProt P11498).
T1 sequence: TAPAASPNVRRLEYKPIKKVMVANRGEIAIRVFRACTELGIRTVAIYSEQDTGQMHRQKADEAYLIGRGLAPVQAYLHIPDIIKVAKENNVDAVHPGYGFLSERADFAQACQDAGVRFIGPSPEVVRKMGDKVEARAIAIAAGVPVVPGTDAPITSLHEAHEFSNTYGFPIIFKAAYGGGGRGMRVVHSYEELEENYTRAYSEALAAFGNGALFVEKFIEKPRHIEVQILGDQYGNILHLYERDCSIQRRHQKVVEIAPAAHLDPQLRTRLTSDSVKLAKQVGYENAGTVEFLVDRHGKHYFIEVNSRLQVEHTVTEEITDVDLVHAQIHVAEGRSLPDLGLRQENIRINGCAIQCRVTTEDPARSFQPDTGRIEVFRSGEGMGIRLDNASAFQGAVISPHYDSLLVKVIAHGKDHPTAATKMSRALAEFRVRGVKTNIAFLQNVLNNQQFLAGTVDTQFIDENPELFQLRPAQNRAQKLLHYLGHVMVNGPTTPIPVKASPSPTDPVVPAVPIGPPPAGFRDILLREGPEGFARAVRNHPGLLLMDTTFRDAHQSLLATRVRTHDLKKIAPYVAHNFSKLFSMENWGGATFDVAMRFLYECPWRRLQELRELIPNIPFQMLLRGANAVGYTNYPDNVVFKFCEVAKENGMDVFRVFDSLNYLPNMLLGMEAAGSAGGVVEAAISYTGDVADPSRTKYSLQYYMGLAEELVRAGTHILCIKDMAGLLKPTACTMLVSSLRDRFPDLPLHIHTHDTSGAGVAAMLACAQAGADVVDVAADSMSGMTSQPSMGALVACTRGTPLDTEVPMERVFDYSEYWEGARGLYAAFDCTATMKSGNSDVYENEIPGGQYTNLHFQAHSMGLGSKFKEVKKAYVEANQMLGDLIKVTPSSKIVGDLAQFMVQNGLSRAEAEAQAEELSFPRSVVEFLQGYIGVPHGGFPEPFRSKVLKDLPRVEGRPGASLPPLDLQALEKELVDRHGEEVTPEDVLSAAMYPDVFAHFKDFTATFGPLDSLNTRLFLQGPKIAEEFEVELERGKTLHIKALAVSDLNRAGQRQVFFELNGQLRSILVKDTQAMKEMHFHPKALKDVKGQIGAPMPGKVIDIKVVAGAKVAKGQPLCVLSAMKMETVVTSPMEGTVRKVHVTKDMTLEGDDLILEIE
The experiment in a line: co-IP; A549 cells transfected with PC or vector plasmids for 24 h, SeV (MOI = 1) or uninfected for 12 h; co-immunoprecipitation and immunoblot with MAVS, PC or TRAF6 antibodies.

Assay [2] deals with T1, endogenous pyruvate carboxylase (PC) (human (endogenous in 293T and A549)). Nature of the assay: co-IP; mitochondrial extracts of 293T cells (SeV MOI = 1 for 12 h or uninfected), mitochondria lysed in RIPA buffer; endogenous proteins, MAVS and PC antibodies.
In assay [3] the target is T2, HA-tagged pyruvate carboxylase (PC) (human) (UniProt P11498).
T2 sequence: T1 sequence
The experiment in a line: co-IP; HEK293T cells co-transfected with HA- and Flag-tagged expression plasmids for 48 h; co-immunoprecipitation and immunoblot with the indicated antibodies. On the technique in general: A western blot detects proteins with antibodies after separation by electrophoresis.

Assay [4] concerns the target T3, Flag-tagged pyruvate carboxylase (PC) (human) (UniProt P11498).
T3 sequence: T1 sequence
The description is as above.

Regarding “endogenous MAVS (from UniProt Q7Z434 1-540)”, the binding entry in assay [1] and in assay [2] was “binds” throughout.
As for “Flag-tagged MAVS (mitochondrial antiviral signaling protein) (from UniProt Q7Z434 1-540)”, the binding entry in assay [3] is “binds”.

B1: HA-tagged TRAF6 aa 1-357 fragment (domain or fragment, UniProt Q9Y4K3 1-357)
chain: MSLLNCENSCGSSQSESDCCVAMASSCSAVTKDDSVGGTASTGNLSSSFMEEIQGYDVEFDPPLESKYECPICLMALREAVQTPCGHRFCKACIIKSIRDAGHKCPVDNEILLENQLFPDNFAKREILSLMVKCPNEGCLHKMELRHLEDHQAHCEFALMDCPQCQRPFQKFHINIHILKDCPRRQVSCDNCAASMAFEDKEIHDQNCPLANVICEYCNTILIREQMPNHYDLDCPTAPIPCTFSTFGCHEKMQRNHLARHLQENTQSHMRMLAQAVHSLSVIPDSGYISEVRNFQETIHQLEGRLVRQDHQIRELTAKMETQSMYVSELKRTIRTLEDKVAEIEAQQCNGIYIWKI
As for B1, the binding result in assay [4] was “binds weakly”.

B2: HA-tagged TRAF6 aa 1-288 fragment (domain or fragment, UniProt Q9Y4K3 1-288)
chain: MSLLNCENSCGSSQSESDCCVAMASSCSAVTKDDSVGGTASTGNLSSSFMEEIQGYDVEFDPPLESKYECPICLMALREAVQTPCGHRFCKACIIKSIRDAGHKCPVDNEILLENQLFPDNFAKREILSLMVKCPNEGCLHKMELRHLEDHQAHCEFALMDCPQCQRPFQKFHINIHILKDCPRRQVSCDNCAASMAFEDKEIHDQNCPLANVICEYCNTILIREQMPNHYDLDCPTAPIPCTFSTFGCHEKMQRNHLARHLQENTQSHMRMLAQAVHSLSVIPDSGY
As for B2, the binding result in assay [4] is recorded as “no binding”.

B3: HA-tagged TRAF6 aa 358–522 fragment (domain or fragment, UniProt Q9Y4K3 358-522)
chain: GNFGMHLKCQEEEKPVVIHSPGFYTGKPGYKLCMRLHLQLPTAQRCANYISLFVHTMQGEYDSHLPWPFQGTIRLTILDQSEAPVRQNHEEIMDAKPELLAFQRPTIPRNPKGFGYVTFMHLEALRQRTFIKDDTLLVRCEVSTRFDMGSLRREGFQPRSTDAGV
As to B3, in assay [4], the binding result is given as “binds”.

B4: HA-tagged TRAF6 aa 289–522 fragment (domain or fragment, UniProt Q9Y4K3 289-522)
chain: ISEVRNFQETIHQLEGRLVRQDHQIRELTAKMETQSMYVSELKRTIRTLEDKVAEIEAQQCNGIYIWKIGNFGMHLKCQEEEKPVVIHSPGFYTGKPGYKLCMRLHLQLPTAQRCANYISLFVHTMQGEYDSHLPWPFQGTIRLTILDQSEAPVRQNHEEIMDAKPELLAFQRPTIPRNPKGFGYVTFMHLEALRQRTFIKDDTLLVRCEVSTRFDMGSLRREGFQPRSTDAGV
In the case of B4, the binding result in assay [4] is reported as “binds”.
